# Measurements: patent publication US11542275B2, “Substituted imidazolidin-2-one derivatives as PRMT5 inhibitors” (Aurigene Discovery Technologies Limited, priority 2018, dated 2023)
# Target: PRMT5/MEP50 Complex (Homo sapiens (Human), UniProt O14744)
# Assay: PRMT5 inhibition based on TR-FRET assay
# Format: biochemical
# Details: 32 nM PRMT5:MEP50 complex, 50 nM Histone-H4 peptide, 1 μM SAM, 90 minutes at room temperature
# Excerpt: Protein arginine methyltransferase 5 (PRMT5) is a type II arginine methyltransferase that catalyze mono- and symmetric demethylation on arginine residues of histone or non-histone proteins in presence of S-adenosylmethionine (AdoMet or SAM) a cofactor responsible for donating the methyl group. PRMT5 is reported to be overexpressed in several human cancers. To identify compounds that inhibit the PRMT5 and decrease its activity, a TR-FRET based assay has been established. Time-resolved fluorescence resonance energy transfer (TR-FRET) HTS assays are homogeneous proximity assays where the interaction of two dye-labeled binding partners is detected by the energy transfer between a donor and an acceptor dye, and the subsequent light emission by the acceptor dye. PRMT5 catalyzes Histone H4 peptide which is biotin tagged to the Lysine amino acid at carboxyl end, in presence of S-adenosyl-1-methionine (SAM) to methylate the peptide. The antibody specific to mono methylated H4 peptide (H4R3) with Ig conjugate binds to the methylated peptide, indirectly binding to the Europium lanthanide. SureLight Allophycocyanin-Streptavidin binds to the biotin tag of the peptide, therefore accepting the energy transferred from the Europium lanthanide. This energy transfer between Europium to SureLight Allophycocyanin is a direct measure of the activity/inhibition of the PRMT5 enzyme.
# Assay buffer: 20 mM BICINE (pH 7.6), 25 mM NaCl, 2 mM DTT, 0.01% Tween-20 and 0.01% BSA.
# The compound dilutions were prepared as 7.5% DMSO stock solutions in assay buffer. To 2 μL (7.5×) of test compound, 5 μL of PRMT5 enzyme prepared in assay buffer (Final concentration of 32 nM in 15 μL reaction volume) was added and allowed for 30 minutes pre-incubation time in a white polystyrene 384-well plate at room temperature. […] The plates were then read on Victor-3 with Excitation at 340 nm and Emissions collected at 615 and 665 nm in TR-FRET protocol. […]
row,IC50 [µM],SMILES
1,0.444,"CO[C@H](CN1CCc2ccccc2C1)CN1CCN(Cc2ccc(C3CCOCC3)cn2)C1=O [Compound 104, (R)-1-(3-(3,4-dihydroisoquinolin-2(1H)-yl)-2-methoxypropyl)-3-((5-(tetrahydro-2H-pyran-4-yl)pyridin-2-yl)methyl)imidazolidin-2-one]"
2,0.052,"N#CC1CCN(c2cnc(CN3CCN(C[C@H](O)CN4CCc5ccccc5C4)C3=O)cn2)CC1 [Compound 10, (R)-1-(5-((3-(3-(3,4-dihydroisoquinolin-2(1H)-yl)-2-hydroxypropyl)-2-oxoimidazolidin-1-yl)methyl)pyrazin-2-yl)piperidine-4-carbonitrile]"
3,0.068,"O=C1N(Cc2ccc(-n3ccccc3=O)cn2)CCN1C[C@H](O)CN1CCc2ccccc2C1 [Compound 101, (R)-6′-((3-(3-(3,4-dihydroisoquinolin-2(1H)-yl)-2-hydroxypropyl)-2-oxoimidazolidin-1-yl)methyl)-2H-[1,3′-bipyridin]-2-one]"
